The target of assay [1] is T1, Flag-tagged CAD (caspase-activated DNase) (human) (UniProt O76075).
T1 sequence: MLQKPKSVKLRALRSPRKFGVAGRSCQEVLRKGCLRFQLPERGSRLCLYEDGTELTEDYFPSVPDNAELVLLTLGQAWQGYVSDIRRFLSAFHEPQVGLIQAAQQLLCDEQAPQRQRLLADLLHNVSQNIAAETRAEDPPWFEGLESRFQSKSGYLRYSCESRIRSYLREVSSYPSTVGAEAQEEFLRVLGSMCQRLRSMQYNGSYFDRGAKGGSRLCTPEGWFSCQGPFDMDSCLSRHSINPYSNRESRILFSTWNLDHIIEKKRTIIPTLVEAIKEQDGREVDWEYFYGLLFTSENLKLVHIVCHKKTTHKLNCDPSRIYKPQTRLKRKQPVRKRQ
Description: co-IP; exogenous (transfected) proteins in lysates of HEK293T, HCT116 or HT29 cells; IP lysis buffer 25 mM HEPES, 150 mM NaCl, 1 mM EDTA, 1% NP-40, 10% glycerol, pH 7.4; antibody against Flag, MYC or HA, Protein A/G magnetic beads; western blotting. (In general: Immunoblotting shows a protein as a band on a membrane.)

By UniProt entry, the sequences of proteins in these tests, tags left out. Where a name states a change or a piece, a line headed by the entry shows the natural chain unless it says otherwise.
UniProt Q86WV6: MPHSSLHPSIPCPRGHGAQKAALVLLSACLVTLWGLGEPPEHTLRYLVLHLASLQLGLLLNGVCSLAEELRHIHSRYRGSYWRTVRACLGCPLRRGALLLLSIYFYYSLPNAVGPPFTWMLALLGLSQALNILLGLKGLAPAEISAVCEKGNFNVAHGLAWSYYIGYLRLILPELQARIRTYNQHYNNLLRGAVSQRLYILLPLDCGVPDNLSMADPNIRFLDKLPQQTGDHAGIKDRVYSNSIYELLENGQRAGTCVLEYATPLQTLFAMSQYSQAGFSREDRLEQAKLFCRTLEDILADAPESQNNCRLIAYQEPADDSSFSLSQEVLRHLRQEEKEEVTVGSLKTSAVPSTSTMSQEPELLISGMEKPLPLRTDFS
UniProt Q8N884: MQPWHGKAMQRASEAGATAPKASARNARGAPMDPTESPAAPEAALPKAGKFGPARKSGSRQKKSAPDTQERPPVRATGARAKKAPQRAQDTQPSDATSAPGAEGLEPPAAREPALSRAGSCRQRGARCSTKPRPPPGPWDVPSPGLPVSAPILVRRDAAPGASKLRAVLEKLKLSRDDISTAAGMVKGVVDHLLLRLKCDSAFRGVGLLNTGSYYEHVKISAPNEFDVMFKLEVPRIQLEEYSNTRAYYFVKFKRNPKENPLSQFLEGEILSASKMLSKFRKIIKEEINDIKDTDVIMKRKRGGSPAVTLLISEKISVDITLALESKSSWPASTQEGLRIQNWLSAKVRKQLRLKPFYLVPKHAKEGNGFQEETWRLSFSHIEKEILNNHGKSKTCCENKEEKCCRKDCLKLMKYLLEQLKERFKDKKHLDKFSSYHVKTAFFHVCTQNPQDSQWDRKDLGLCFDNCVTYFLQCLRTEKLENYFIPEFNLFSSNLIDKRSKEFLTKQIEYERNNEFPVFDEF

The target of assay [2] is T1, Flag-tagged CAD (caspase-activated DNase) (human). Put plainly: co-IP; HEK293T cells; the pair co-expressed with a third protein (CAD, ICAD or ICAD-NTD), in part at different amounts; western blotting.
The next assay addresses T2, CAD C26A (human) (UniProt O76075).
T2 sequence: T1 sequence with C26A
Put plainly: co-IP; exogenous (transfected) proteins in lysates of HEK293T, HCT116 or HT29 cells; IP lysis buffer 25 mM HEPES, 150 mM NaCl, 1 mM EDTA, 1% NP-40, 10% glycerol, pH 7.4; antibody against Flag, MYC or HA, Protein A/G magnetic beads; western blotting.

The next assay deals with T3, CAD Q27A (human) (UniProt O76075).
T3 sequence: T1 sequence with Q27A
Described as above.

A further assay has as its target T4, CAD R24A (human) (UniProt O76075).
T4 sequence: T1 sequence with R24A
Described as above.

A further assay has as its target T5, CAD-H260A (human) (UniProt O76075).
T5 sequence: T1 sequence with H260A
Described as above.

Assay [3] concerns the target T6, CAD^RCQ (R24A, C26A, and Q27A) (human) (UniProt O76075).
T6 sequence: T1 sequence with R24A, C26A, Q27A
The assay is described as above.

The target of the next assay is T7, GST-tagged CAD (human) (UniProt O76075).
T7 sequence: T1 sequence
Put plainly: pull-down; purified GST-tagged CAD or STING incubated with untagged STING or CAD and GST-conjugated beads at 4 °C overnight; western blotting; both purified.

Where a chain is given by its changes, count along the chain named. These are yes or no findings as the source states them, for the method shown. For some assays here: In cells and extracts the contact can be indirect. Some binding calls cover weakened binding; strength is not graded here. For some assays here: Tags and fused reporters may be left off the sequences shown.

Take STING D237A (from UniProt Q86WV6 1-379): in assay [1], the binding entry was “binds”. Consider STING G166A (from UniProt Q86WV6 1-379), for which the binding entry in assay [1] is recorded as “binds”. Consider STING V239A (from UniProt Q86WV6 1-379), for which, in assay [1], the binding result is reported as “binds”. Regarding STING-R284S (from UniProt Q86WV6 1-379), the binding result in assay [1] is listed as “no binding”. “STING^GDV (G166R, D237A, and V239F) (from UniProt Q86WV6 1-379)”: the binding result in assay [1] is “no binding”. For the substance “myc- or HA-tagged cGAS (from UniProt Q8N884 1-522) (enzyme)”, the binding result in assay [1] is reported as “no binding”. As for “tagged STING (from UniProt Q86WV6 1-379)”, the binding result is on record as “binds” in assay [2]; “binds” in the assay with CAD C26A (human); “binds” with CAD Q27A (human); “binds” in the assay with CAD R24A (human); “binds” with CAD-H260A (human); “no binding” in assay [3]. Moreover, the binding result in assay [1] was “binds”. For “untagged STING (from UniProt Q86WV6 1-379)”, the binding result with GST-tagged CAD (human) is on record as “binds”.

Source of the values: publication PMC12375107.
